Substitutions are numbered along the chain they refer to; changes in the protein carry UniProt numbers. The list shows a part of the results.
T1: RBFOX1 RRM RbFoxmut (Fox-RRM*) (Homo sapiens, UniProt Q9NWB1 109-208, R118D;E147R;N151S;E152T)
T1 sequence: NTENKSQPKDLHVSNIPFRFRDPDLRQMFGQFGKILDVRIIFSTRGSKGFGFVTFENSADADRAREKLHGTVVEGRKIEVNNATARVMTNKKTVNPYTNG

B1: AUUCCCC (DNA:RNA)
RNA: GGGAGACCGGAAUUCAGAUUGUCCAUUCCCCUUAAAUCCCGUCGUAGCCACCA
DNA 1: CAATCTGAATTCCGGTCTCCC
DNA 2: TGGTGGCTACGACGGGATT
B2: CCCGUCG (DNA:RNA)
RNA: B1 RNA with A25C, U26C, U27C, C28G, C29U, C31G
DNA 1: CAATCTGAATTCCGGTCTCCC
DNA 2: TGGTGGCTACGACGGGATT
B3: GAUCAUG (DNA:RNA)
RNA: B1 RNA with A25G, U26A, C29A, C30U, C31G
DNA 1: CAATCTGAATTCCGGTCTCCC
DNA 2: TGGTGGCTACGACGGGATT
B4: AUACGCU (DNA:RNA)
RNA: B1 RNA with U27A, C29G, C31U
DNA 1: CAATCTGAATTCCGGTCTCCC
DNA 2: TGGTGGCTACGACGGGATT
B5: CGCUGAG (DNA:RNA)
RNA: GGGAGACCGGAAUUCAGAUUGUCCCGCUGAGUUAAAUCCCGUCGUAGCCACCA
DNA 1: CAATCTGAATTCCGGTCTCCC
DNA 2: TGGTGGCTACGACGGGATT
B6: GCGAGGG (DNA:RNA)
RNA: B5 RNA with C25G, G26C, C27G, U28A, A30G
DNA 1: CAATCTGAATTCCGGTCTCCC
DNA 2: TGGTGGCTACGACGGGATT
B7: AGGGAAA (DNA:RNA)
RNA: B5 RNA with C25A, C27G, U28G, G29A, G31A
DNA 1: CAATCTGAATTCCGGTCTCCC
DNA 2: TGGTGGCTACGACGGGATT
B8: UAGAGAG (DNA:RNA)
RNA: B5 RNA with C25U, G26A, C27G, U28A
DNA 1: CAATCTGAATTCCGGTCTCCC
DNA 2: TGGTGGCTACGACGGGATT
B9: AGCCCUA (DNA:RNA)
RNA: B1 RNA with U26G, U27C, C30U, C31A
DNA 1: CAATCTGAATTCCGGTCTCCC
DNA 2: TGGTGGCTACGACGGGATT
B10: UUUGGGC (DNA:RNA)
RNA: B1 RNA with A25U, C28G, C29G, C30G
DNA 1: CAATCTGAATTCCGGTCTCCC
DNA 2: TGGTGGCTACGACGGGATT
B11: ACAUCUA (DNA:RNA)
RNA: B1 RNA with U26C, U27A, C28U, C30U, C31A
DNA 1: CAATCTGAATTCCGGTCTCCC
DNA 2: TGGTGGCTACGACGGGATT
B12: AUCAGCG (DNA:RNA)
RNA: B1 RNA with U27C, C28A, C29G, C31G
DNA 1: CAATCTGAATTCCGGTCTCCC
DNA 2: TGGTGGCTACGACGGGATT
B13: UAAUGGU (DNA:RNA)
RNA: B5 RNA with C25U, G26A, C27A, A30G, G31U
DNA 1: CAATCTGAATTCCGGTCTCCC
DNA 2: TGGTGGCTACGACGGGATT
B14: AACUAAU (DNA:RNA)
RNA: B5 RNA with C25A, G26A, G29A, G31U
DNA 1: CAATCTGAATTCCGGTCTCCC
DNA 2: TGGTGGCTACGACGGGATT
B15: GUAUAAU (DNA:RNA)
RNA: B5 RNA with C25G, G26U, C27A, G29A, G31U
DNA 1: CAATCTGAATTCCGGTCTCCC
DNA 2: TGGTGGCTACGACGGGATT
B16: CCAUAAA (DNA:RNA)
RNA: B5 RNA with G26C, C27A, G29A, G31A
DNA 1: CAATCTGAATTCCGGTCTCCC
DNA 2: TGGTGGCTACGACGGGATT
B17: GCUGUCC (DNA:RNA)
RNA: B1 RNA with A25G, U26C, C28G, C29U
DNA 1: CAATCTGAATTCCGGTCTCCC
DNA 2: TGGTGGCTACGACGGGATT
B18: UACUGCG (DNA:RNA)
RNA: B5 RNA with C25U, G26A, A30C
DNA 1: CAATCTGAATTCCGGTCTCCC
DNA 2: TGGTGGCTACGACGGGATT
B19: GGGCUAG (DNA:RNA)
RNA: B5 RNA with C25G, C27G, U28C, G29U
DNA 1: CAATCTGAATTCCGGTCTCCC
DNA 2: TGGTGGCTACGACGGGATT
B20: GCGGCAA (DNA:RNA)
RNA: B1 RNA with A25G, U26C, U27G, C28G, C30A, C31A
DNA 1: CAATCTGAATTCCGGTCTCCC
DNA 2: TGGTGGCTACGACGGGATT
B21: CAAAUCG (DNA:RNA)
RNA: B5 RNA with G26A, C27A, U28A, G29U, A30C
DNA 1: CAATCTGAATTCCGGTCTCCC
DNA 2: TGGTGGCTACGACGGGATT
B22: ACAUGGA (DNA:RNA)
RNA: B5 RNA with C25A, G26C, C27A, A30G, G31A
DNA 1: CAATCTGAATTCCGGTCTCCC
DNA 2: TGGTGGCTACGACGGGATT
B23: UGUACGA (DNA:RNA)
RNA: B1 RNA with A25U, U26G, C28A, C30G, C31A
DNA 1: CAATCTGAATTCCGGTCTCCC
DNA 2: TGGTGGCTACGACGGGATT
B24: GAGAUUU (DNA:RNA)
RNA: GGGAGACCGGAAUUCAGAUUGUCCGAGAUUUUUAAAUCCCGUCGUAGCCACCA
DNA 1: CAATCTGAATTCCGGTCTCCC
DNA 2: TGGTGGCTACGACGGGATT
B25: UUGCCAU (DNA:RNA)
RNA: B1 RNA with A25U, U27G, C30A, C31U
DNA 1: CAATCTGAATTCCGGTCTCCC
DNA 2: TGGTGGCTACGACGGGATT
B26: GGUAAAC (DNA:RNA)
RNA: B1 RNA with A25G, U26G, C28A, C29A, C30A
DNA 1: CAATCTGAATTCCGGTCTCCC
DNA 2: TGGTGGCTACGACGGGATT
B27: UCUUCCA (DNA:RNA)
RNA: B1 RNA with A25U, U26C, C28U, C31A
DNA 1: CAATCTGAATTCCGGTCTCCC
DNA 2: TGGTGGCTACGACGGGATT
B28: CAUAUUU (DNA:RNA)
RNA: B24 RNA with G25C, G27U
DNA 1: CAATCTGAATTCCGGTCTCCC
DNA 2: TGGTGGCTACGACGGGATT
B29: UGAGGUA (DNA:RNA)
RNA: B5 RNA with C25U, C27A, U28G, A30U, G31A
DNA 1: CAATCTGAATTCCGGTCTCCC
DNA 2: TGGTGGCTACGACGGGATT
B30: GCCUUGA (DNA:RNA)
RNA: B5 RNA with C25G, G26C, G29U, A30G, G31A
DNA 1: CAATCTGAATTCCGGTCTCCC
DNA 2: TGGTGGCTACGACGGGATT
B31: CAAUAGA (DNA:RNA)
RNA: B5 RNA with G26A, C27A, G29A, A30G, G31A
DNA 1: CAATCTGAATTCCGGTCTCCC
DNA 2: TGGTGGCTACGACGGGATT

molecular target: T1, RBFOX1 RRM RbFoxmut (Fox-RRM*); experiment: EMSA; HiTS-Eq, 1 nM pool, 10 min; buffer printed only for the single-RNA assays: 10 mM Tris pH 7.5, 150 mM NaCl, 3.4 mM EDTA, 0.001% NP-40, 30 C; settings: tags: His6 N-terminal (pET28a); label: 5' 32P
Method in brief: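 Relative association constants, normalised to the cognate motif, were derived by comparing read counts of each RNA species with those of the control reaction. The RNA sequenced was the free fraction, separated by 8% native PAGE after a 10 min equilibration in 50 µL of 1 nM 5′-radiolabelled RNA (7 randomized nucleotides) with increasing concentrations of purified wild-type or mutant RbFox RRM.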

| Binder | binding signal |
| --- | --- |
| B1 | 0.0549 KA relative to UGCAUGU |
| B2 | 0.101 KA relative to UGCAUGU |
| B3 | 0.102 KA relative to UGCAUGU |
| B4 | 0.0878 KA relative to UGCAUGU |
| B5 | 0.102 KA relative to UGCAUGU |
| B6 | 0.0739 KA relative to UGCAUGU |
| B7 | 0.0963 KA relative to UGCAUGU |
| B8 | 0.0939 KA relative to UGCAUGU |
| B9 | 0.0818 KA relative to UGCAUGU |
| B10 | 0.0802 KA relative to UGCAUGU |
| B11 | 0.104 KA relative to UGCAUGU |
| B12 | 0.133 KA relative to UGCAUGU |
| B13 | 0.111 KA relative to UGCAUGU |
| B14 | 0.0802 KA relative to UGCAUGU |
| B15 | 0.114 KA relative to UGCAUGU |
| B16 | 0.124 KA relative to UGCAUGU |

| Binder | binding signal |
| --- | --- |
| B17 | 0.0678 KA relative to UGCAUGU |
| B18 | 0.0912 KA relative to UGCAUGU |
| B19 | 0.134 KA relative to UGCAUGU |
| B20 | 0.0597 KA relative to UGCAUGU |
| B21 | 0.077 KA relative to UGCAUGU |
| B22 | 0.0672 KA relative to UGCAUGU |
| B23 | 0.157 KA relative to UGCAUGU |
| B24 | 0.106 KA relative to UGCAUGU |
| B25 | 0.0889 KA relative to UGCAUGU |
| B26 | 0.0429 KA relative to UGCAUGU |
| B27 | 0.0678 KA relative to UGCAUGU |
| B28 | 0.111 KA relative to UGCAUGU |
| B29 | 0.135 KA relative to UGCAUGU |
| B30 | 0.561 KA relative to UGCAUGU |
| B31 | 0.112 KA relative to UGCAUGU |

Source: article PMC9911399, “Two distinct binding modes provide the RNA-binding protein RbFox with extraordinary sequence specificity”
